Assay results taken from PubChem BioAssay AID485344 (National Center for Advancing Translational Sciences (NCATS), 2010).
The whole screen tested about 340,000 compounds, of which about 6,900 (2%) were called active. No stated cut-off is given here; in the data, active means inhibition above about 30%; inactive means below that, where a call was filed. The entries are a selection whose mix differs from that of the whole data set. Entries without a call were filed so in the source.

molecular target: D(2) dopamine receptor (Homo sapiens) (UniProt P14416); assay: HTS Assay for Allosteric Antagonists of the Human D2 Dopamine Receptor: Primary Screen for Antagonists; conditions: HEK293 TREx D2 cells, calcium flux, dopamine EC80; at 10 µM; stronger effect = higher value; further: 0% is about no effect
Sequence of UniProt P14416 (P14416 whole entry, looked up): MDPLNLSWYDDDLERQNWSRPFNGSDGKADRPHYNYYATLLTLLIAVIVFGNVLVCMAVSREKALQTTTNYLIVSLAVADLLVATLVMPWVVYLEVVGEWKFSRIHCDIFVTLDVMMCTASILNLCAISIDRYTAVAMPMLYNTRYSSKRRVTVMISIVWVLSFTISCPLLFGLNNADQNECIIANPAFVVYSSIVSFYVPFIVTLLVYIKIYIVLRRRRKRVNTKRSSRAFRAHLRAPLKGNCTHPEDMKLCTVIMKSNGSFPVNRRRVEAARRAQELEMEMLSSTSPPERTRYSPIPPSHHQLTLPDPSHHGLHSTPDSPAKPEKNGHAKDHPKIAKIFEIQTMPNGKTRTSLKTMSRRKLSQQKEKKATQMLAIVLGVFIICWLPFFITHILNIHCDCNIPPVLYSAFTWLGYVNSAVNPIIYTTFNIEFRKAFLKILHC
Method in brief: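 Tetracycline-induced HEK293 T-REx cells expressing D2 force-coupled to calcium signalling were dye-loaded, exposed to compound for 180 s, then challenged with an EC80 of dopamine; calcium flux was followed kinetically for a further 180 s.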

Row | Structure (SMILES) | inhibition
1 | COc1ccc(CNC(=O)c2ccc3c(c2)CCN3S(=O)(=O)c2ccc(C)cc2)cc1 | -8.18%
2 | Cc1ccc(NC(=O)C2CCCN2S(=O)(=O)c2cccc3nsnc23)cc1Cl (configuration not stated) | 27.5%
3 | O=[N+]([O-])c1ccc(N2CCCC2)cc1NC(c1ccccc1)c1ccccc1 | active: 30%
4 | CCN1CCN(C(=O)Cn2nc(C)n3c(cc4c(OC)cccc43)c2=O)CC1 | active: 35.3%
5 | Cc1ccccc1C(=O)N1CCN(CCc2ccccn2)CC1 | 7.27%
6 | CC1CCN(S(=O)(=O)c2ccc3c(c2)CCN3C(=O)Nc2ccc(Br)cc2)CC1 | 6.34%
7 | Cc1c(C(=O)Nc2ccc(C(C)C)cc2)sc2nc[nH]c(=O)c12 | -19.5%
8 | CC1CCN(S(=O)(=O)c2ccc3c(c2)N(CC(=O)NC(C)C)C(=O)CO3)CC1 | 5.09%
9 | COc1ccc(CC(=O)Nc2cc(S(=O)(=O)N3CCCCC3)ccc2C)cc1 | active: 30.7%
10 | COc1cccc(CNC(=O)CSc2ncc(S(=O)(=O)c3ccc(Br)cc3)c(=O)[nH]2)c1 | -3.22%
11 | Cc1ccc(-c2nnc(Nc3ccc(Cl)c(Cl)c3)c3ccccc23)cc1S(=O)(=O)NCCO | 4.51%
12 | Cc1ccccc1-c1noc(-c2cccnc2N(C)Cc2ccc(Cl)cc2)n1 | 16.3%
13 | COc1ccc(CCNC(=O)CSc2nnnn2-c2cccc(C(C)=O)c2)cc1OC | -7.59%
14 | Fc1ccc(Cc2cn3cc(-c4ccccc4)nc3s2)cc1 | -15.2%
15 | CCOC(=O)c1ccc(NC(=O)c2csnn2)cc1 | 6.32%
16 | CCOC(=O)c1cccc(NC(=O)CCC(=O)N2CC(C)Oc3ccc(C)cc32)c1 (configuration not stated) | -14.2%
17 | Cc1ccc(CNC(=O)c2c(O)nc3c(C)cccn3c2=O)cc1 | -3.91%
18 | CCN(CC)CCCNC(=O)c1ccc2c(c1)NC(=O)C(CS(=O)(=O)Cc1cccc(Br)c1)N2 (configuration not stated) | 7.43%
19 | COc1ccc(Br)cc1CNC(=O)c1nn(-c2ccc(C)cc2)c(=O)c2c1c1ccccc1n2C | 19.9%
20 | CN(C)c1ccc(CNS(=O)(=O)c2ccc3[nH]c4c(c3c2)CCCCC4)cc1 | 4.2%
21 | C=Cc1ccc(CN2C(=O)c3ccccc3Sc3ccc(C(=O)OCc4ccco4)cc32)cc1 | 5.57%
22 | O=C(Nc1ccccc1)N(Cc1ccc(F)cc1)c1ccccn1 | 21.3%
23 | Cc1cc(O)c(C(c2ccccc2)N2CCN(C)CC2)c(=O)n1Cc1ccco1 (configuration not stated) | 9.58%
24 | COc1ccc(-c2noc(CN(C(C)C)S(=O)(=O)c3ccc(Br)cc3)n2)cc1 | -3.82%
25 | CN1CCN(c2ccccc2/C=C2/C(=O)Nc3ccccc32)CC1 | active: 37.2%
26 | Cc1cccc(NC2=CC(c3cccc(Br)c3)N(c3cccc(C)c3)C2=O)c1 (configuration not stated) | -4.26%
27 | CCOC(=O)c1c(C)[nH]c(C)c1S(=O)(=O)NCC(=O)N1CCN(c2cccc(C)c2)C(C)C1 (configuration not stated) | -9.36%
